Measurements published in PubChem BioAssay AID1460 (National Center for Advancing Translational Sciences (NCATS), 2008).
Out of some 270,000 compounds screened, about 5,800 (2.1%) were called active. Inconclusive means that the source gave no clear call. Such entries were picked first, then a sample of the others. Calls come from the whole dose curve; as a rule, active = well fitted inhibition curve with a large enough effect; inconclusive = small, poorly fitted or top-dose-only effect; inactive = flat fitted curve, though single readings scatter. Where the call is inconclusive, the potency comes from a doubtful curve fit.

What follows are molecules tested against Microtubule-associated protein tau (Homo sapiens) (UniProt P10636) (assay: qHTS for Inhibitors of Tau Fibril Formation, Thioflavin T Binding). Details: recombinant tau K18 P301L, heparin-induced fibrillization, ThT fluorescence; series mostly up to 57.4 µM.
Sequence of UniProt P10636 (P10636 whole entry, looked up): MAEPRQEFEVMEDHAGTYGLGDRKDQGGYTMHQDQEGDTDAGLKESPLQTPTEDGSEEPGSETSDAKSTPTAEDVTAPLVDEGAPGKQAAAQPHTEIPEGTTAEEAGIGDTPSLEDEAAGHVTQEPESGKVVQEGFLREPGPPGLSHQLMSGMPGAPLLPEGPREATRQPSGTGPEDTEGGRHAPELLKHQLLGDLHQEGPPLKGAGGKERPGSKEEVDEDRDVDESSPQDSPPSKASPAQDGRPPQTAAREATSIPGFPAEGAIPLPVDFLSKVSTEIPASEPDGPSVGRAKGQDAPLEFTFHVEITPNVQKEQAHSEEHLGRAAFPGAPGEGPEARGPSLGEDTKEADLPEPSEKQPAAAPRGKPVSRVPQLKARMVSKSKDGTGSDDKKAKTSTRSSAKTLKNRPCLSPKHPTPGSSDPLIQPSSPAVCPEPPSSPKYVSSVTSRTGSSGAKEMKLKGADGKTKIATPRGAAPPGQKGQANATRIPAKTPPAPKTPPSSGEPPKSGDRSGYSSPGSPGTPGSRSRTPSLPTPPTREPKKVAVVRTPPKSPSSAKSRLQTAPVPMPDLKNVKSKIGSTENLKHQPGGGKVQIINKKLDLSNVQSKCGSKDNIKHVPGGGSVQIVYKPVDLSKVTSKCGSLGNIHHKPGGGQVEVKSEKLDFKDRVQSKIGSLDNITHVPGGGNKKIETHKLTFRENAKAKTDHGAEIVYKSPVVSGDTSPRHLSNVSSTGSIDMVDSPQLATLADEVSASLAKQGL
In short: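 ThT emission at 510 nm, taken 1 hr after adding 30 uM dye, quantifies aggregates formed when 20 uM heparin acts on human tau K18 P301L for 6 hr at 37 C.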
% is set by controls: 0 for no effect and ±100 for the full control effect; potency is the fitted concentration of half-maximal effect; tags give direction and shape of the fitted curve.
Note: nearly all actives have a fitted effect of over 55% in size.

Row | SMILES | Potency | activity, negative = inhibition
1 | COc1ccc2c3c([nH]c2c1)C1CC2C(CC(O)C(OC)C2C(=O)O)CN1CC3 (stereo not drawn) | inconclusive: 31.6 µM [inhibitor, partial curve] | 
2 | COCCCn1c(SCC(=O)NC(C)C)nnc1-c1ccccc1 | inactive | 
3 | Cc1ccc(/C([O-])=C(/C(=S)Nc2ccc(SC(F)F)cc2)[n+]2ccccc2)cc1[N+](=O)[O-] | inconclusive: 25.1 µM [inhibitor, partial curve] | 
4 | CN(Cc1c(C(=O)N(C)Cc2ccccc2)nc2ccccn12)CC1Cc2ccccc2O1 (stereo not drawn) | inactive | 
5 | Oc1c(C=Nc2cccc3nsnc23)ccc2ccccc12 | active: 2.24 µM | 
6 | COc1ccc(CC(=O)Nc2ccc(S(=O)(=O)NCC3CCCO3)cc2)cc1 (stereo not drawn) | inactive | 
7 | CCCC(=O)NCc1cc(-c2nn(C)c(=O)c3ccccc23)ccc1C | inactive | 
8 | O=[N+]([O-])c1ccc2ncnc(Nc3ccc4c(c3)OCCO4)c2c1 | inconclusive: 14.1 µM [inhibitor, partial curve] | 
9 | NC(=O)c1cc[n+](CC2=C(C(=O)O)N3C(=O)[C@@H](NC(=O)[C@@H](c4ccccc4)S(=O)(=O)[O-])[C@H]3SC2)cc1 | inactive | 
10 | O=C1N=C(N2CCN(c3ccccc3)CC2)S/C1=C/c1cccs1 | inconclusive: 15.8 µM [inhibitor, partial curve] | 
11 | COc1ccc(C(=O)Nc2ccc(C3(C#N)CCCC3)cc2)cc1 | inconclusive: 1.12 µM [inhibitor, partial curve] | 
12 | Cc1cc2c(N=NC(=O)C3CC3c3ccccc3)c(O)[nH]c2cc1Br (stereo not drawn) | inconclusive: 11.2 µM [inhibitor, partial curve, poor fit] | 
13 | Cc1ccccc1NC(=O)CNc1ccccc1C(=O)NCc1ccco1 | inactive | 
14 | O=C(c1ccc(CNS(=O)(=O)c2ccc(Br)cc2)cc1)N1CCCC1 | inconclusive: 39.8 µM [inhibitor, single point] | 
15 | Cc1cc(C)c2cc3c(N)c(C(=O)N4CCc5ccccc5C4)sc3nc2c1 | inconclusive: 4.47 µM [inhibitor, full curve] | 
16 | COc1c(-c2coc3cc4c(cc3c2=O)CC(OC(C)=O)C(C)(C)O4)ccc2c1C=CC(C)(C)O2 (stereo not drawn) | inconclusive: 22.4 µM [inhibitor, partial curve, poor fit] | 
17 | O=C(O)c1ccc(COc2ccccc2C=C2C(=O)c3ccccc3C2=O)cc1 | inconclusive: 15.8 µM [inhibitor, partial curve] | 
18 | COc1ccc(-c2cc(C(=O)Nc3cccc(O)c3)on2)cc1OC | inconclusive: 25.1 µM [inhibitor, single point] | 
19 | COc1ccc(-n2c(C)cc(/C=C3\C(=O)NN(c4ccccc4)C3=O)c2C)cc1 | inconclusive: 3.55 µM [inhibitor, full curve] | 
20 | Fc1ccc(CSc2nc(NCc3ccccc3)c3ccccc3n2)cc1 | inactive | 
21 | O=C1OC(/C=C/c2ccccc2)=NC/1=C/c1ccco1 | inconclusive: 28.2 µM [inhibitor, single point] | 

Row | SMILES | Potency | activity, negative = inhibition
22 | Cc1[nH]c2ccccc2c1SCCNC(=O)c1ccc(Br)o1 | inconclusive: 20 µM [inhibitor, single point] | 
23 | CN(C(=S)Nc1cccnc1)c1ccc(O)cc1 | active: 2 µM | 
24 | Cc1ccc(C)c(Cn2c(=O)n(Cc3ccccc3)c(=O)c3c2c2cc(C)ccc2n3C)c1 | inactive | 
25 | COc1cccc(C2=NS(=O)(=O)N(C)C(C(=O)Nc3ccccc3SC)=C2)c1 | inactive | 
26 | CC1CCC(NC(=O)c2ccc(CS(=O)(=O)c3cccc(C(F)(F)F)c3)o2)CC1 (stereo not drawn) | inactive | 
27 | COc1cc(NC(=O)CNS(=O)(=O)c2cccs2)cc(OC)c1OC | inactive | 
28 | O=C(Nc1cccc2ccccc12)/C(Cl)=C/c1ccccc1 | inconclusive: 7.94 µM [inhibitor, full curve] | 
29 | Cc1cc(=O)[nH]c(N/N=C/C=C/c2ccccc2)n1 | inconclusive: 10 µM [inhibitor, partial curve, poor fit] | 
30 | C=C1c2cc3c(cc2NC(=S)N1Cc1ccccc1)OCO3 | inconclusive: 31.6 µM [inhibitor, partial curve] | 
31 | O=C(Nc1nnc(SCC(=O)N2CCCc3ccccc32)s1)c1ccccc1 | inactive | 
32 | Cc1cc(C)c(S(=O)(=O)Nc2ccc(-c3ccc(N4CCCCCC4)nn3)cc2)cc1C | inconclusive: 3.55 µM [inhibitor, full curve, poor fit] | 
33 | CC(C)C[C@@H](CC(=O)N[C@H](CC(=O)N[C@@H]1CCCC[C@H]1C(=O)N[C@H](CC(=O)N[C@@H](CCC(=O)O)CC(=O)O)CC(C)C)C(C)C)NC(=O)[C@@H]1CNCC[C@H]1N | inconclusive: 4.47 µM [inhibitor, full curve, poor fit] | 
34 | CCN(CC)c1ccc2cc(-c3nc(-c4ccccc4F)no3)c(=O)oc2c1 | inconclusive: 1.58 µM [activator, full curve] | 
35 | Cc1ccc(N(C)C(=O)CCS(=O)(=O)c2cc3c(cc2Cl)NC(=O)CO3)cc1 | inconclusive: 3.55 µM [inhibitor, full curve] | 
36 | C(=N\Nc1ccccc1)/c1ccc(N2CCOCC2)cc1 | active: 35.5 µM | 
37 | O=C(Nc1cccc(Cl)c1)Nc1ccc2c(c1)OCO2 | inconclusive: 11.2 µM [inhibitor, partial curve] | 
38 | CC1(OC(=O)CCc2ccccc2)C(=O)C=C2C=C(c3ccc(C#N)cc3)N(C3CCCC3)C=C2C1=O (stereo not drawn) | inconclusive: 14.1 µM [inhibitor, partial curve, poor fit] | inactive: -13.9% [at 11.5 µM]
39 | O=C(CN1C(=O)CCc2cc(S(=O)(=O)N3CCOCC3)ccc21)NCc1ccc(Cl)cc1 | inactive | 
40 | CCOc1ccc(CCNC(=O)c2cc3c(s2)-c2c(C)cccc2OC3)cc1 | inconclusive: 1.78 µM [inhibitor, full curve] | 
41 | Cc1ccc(/C=C/C(=O)N2CCN(Cc3ccccc3)CC2)o1 | inconclusive: 39.8 µM [inhibitor, single point] | 
42 | Cc1[nH]c2ccccc2c1/C=C/c1nc2ccccc2c(=O)n1-c1ccc([N+](=O)[O-])cc1 | inconclusive: 11.2 µM [inhibitor, partial curve] | 
